Data reported in PMC8793873.
No constants are given. Whether binding was seen depends on the method and setting. Binding seen in cells or lysates may run through a third protein. Some entries that bind do so weakly or less than the wild type. Sequences can lack the tags named with a protein.

T1: FBN2 fused to a half of a fluorescent protein (BiFC) (Arabidopsis thaliana) (UniProt O82291)
T1 sequence: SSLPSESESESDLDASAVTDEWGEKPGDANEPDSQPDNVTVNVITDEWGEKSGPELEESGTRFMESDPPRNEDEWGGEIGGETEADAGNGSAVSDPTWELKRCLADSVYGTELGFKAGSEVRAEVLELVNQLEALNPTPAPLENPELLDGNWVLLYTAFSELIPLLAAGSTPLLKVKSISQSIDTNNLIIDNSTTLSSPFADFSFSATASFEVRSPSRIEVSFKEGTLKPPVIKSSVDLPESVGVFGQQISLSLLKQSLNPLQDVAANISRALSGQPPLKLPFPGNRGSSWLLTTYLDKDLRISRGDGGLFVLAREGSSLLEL

T2: FBN1b fused to a half of a fluorescent protein (BiFC) (Arabidopsis thaliana) (UniProt O49629)
T2 sequence: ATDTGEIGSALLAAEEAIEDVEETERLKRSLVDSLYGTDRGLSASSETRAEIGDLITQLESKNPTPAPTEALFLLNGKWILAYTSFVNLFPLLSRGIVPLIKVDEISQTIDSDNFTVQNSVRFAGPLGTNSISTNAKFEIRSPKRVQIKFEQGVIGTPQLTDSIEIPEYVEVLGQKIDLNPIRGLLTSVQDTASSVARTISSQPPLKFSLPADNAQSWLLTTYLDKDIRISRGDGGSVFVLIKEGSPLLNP

T3: FBN1a fused to a half of a fluorescent protein (BiFC) (Arabidopsis thaliana) (UniProt O81439)
T3 sequence: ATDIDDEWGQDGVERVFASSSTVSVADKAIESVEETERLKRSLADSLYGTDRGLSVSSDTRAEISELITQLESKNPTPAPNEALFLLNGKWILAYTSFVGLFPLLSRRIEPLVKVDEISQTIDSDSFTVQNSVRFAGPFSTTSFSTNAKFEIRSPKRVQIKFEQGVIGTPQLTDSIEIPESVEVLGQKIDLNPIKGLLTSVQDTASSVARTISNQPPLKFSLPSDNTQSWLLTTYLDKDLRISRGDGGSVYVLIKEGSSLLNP

B1: FBN1a fused to a half of a fluorescent protein (BiFC) (protein, UniProt O81439 56-318)
chain: ATDIDDEWGQDGVERVFASSSTVSVADKAIESVEETERLKRSLADSLYGTDRGLSVSSDTRAEISELITQLESKNPTPAPNEALFLLNGKWILAYTSFVGLFPLLSRRIEPLVKVDEISQTIDSDSFTVQNSVRFAGPFSTTSFSTNAKFEIRSPKRVQIKFEQGVIGTPQLTDSIEIPESVEVLGQKIDLNPIKGLLTSVQDTASSVARTISNQPPLKFSLPSDNTQSWLLTTYLDKDLRISRGDGGSVYVLIKEGSSLLNP
B2: FBN1b fused to a half of a fluorescent protein (BiFC) (protein, UniProt O49629 60-310)
chain: ATDTGEIGSALLAAEEAIEDVEETERLKRSLVDSLYGTDRGLSASSETRAEIGDLITQLESKNPTPAPTEALFLLNGKWILAYTSFVNLFPLLSRGIVPLIKVDEISQTIDSDNFTVQNSVRFAGPLGTNSISTNAKFEIRSPKRVQIKFEQGVIGTPQLTDSIEIPEYVEVLGQKIDLNPIRGLLTSVQDTASSVARTISSQPPLKFSLPADNAQSWLLTTYLDKDIRISRGDGGSVFVLIKEGSPLLNP
B3: FBN2 fused to a half of a fluorescent protein (BiFC) (protein, UniProt O82291 54-376)
chain: SSLPSESESESDLDASAVTDEWGEKPGDANEPDSQPDNVTVNVITDEWGEKSGPELEESGTRFMESDPPRNEDEWGGEIGGETEADAGNGSAVSDPTWELKRCLADSVYGTELGFKAGSEVRAEVLELVNQLEALNPTPAPLENPELLDGNWVLLYTAFSELIPLLAAGSTPLLKVKSISQSIDTNNLIIDNSTTLSSPFADFSFSATASFEVRSPSRIEVSFKEGTLKPPVIKSSVDLPESVGVFGQQISLSLLKQSLNPLQDVAANISRALSGQPPLKLPFPGNRGSSWLLTTYLDKDLRISRGDGGLFVLAREGSSLLEL
B4: Allene oxide synthase (AOS) fused to the C-terminal moiety of CFP (BiFC) (enzyme, UniProt Q96242 34-518)
chain: SGSETPDLTVATRTGSKDLPIRNIPGNYGLPIVGPIKDRWDYFYDQGAEEFFKSRIRKYNSTVYRVNMPPGAFIAENPQVVALLDGKSFPVLFDVDKVEKKDLFTGTYMPSTELTGGYRILSYLDPSEPKHEKLKNLLFFLLKSSRNRIFPEFQATYSELFDSLEKELSLKGKADFGGSSDGTAFNFLARAFYGTNPADTKLKADAPGLITKWVLFNLHPLLSIGLPRVIEEPLIHTFSLPPALVKSDYQRLYEFFLESAGEILVEADKLGISREEATHNLLFATCFNTWGGMKILFPNMVKRIGRAGHQVHNRLAEEIRSVIKSNGGELTMGAIEKMELTKSVVYECLRFEPPVTAQYGRAKKDLVIESHDAAFKVKAGEMLYGYQPLATRDPKIFDRADEFVPERFVGEEGEKLLRHVLWSNGPETETPTVGNKQCAGKDFVVLVARLFVIEIFRRYDSFDIEVGTSPLGSSVNFSSLRKASF
B5: FBN4 fused to the C-terminal moiety of CFP (BiFC) (protein, UniProt Q9LW57 73-284)
chain: SSSGSGGDDKQIALLKLKLLSVVSGLNRGLVASVDDLERAEVAAKELETAGGPVDLTDDLDKLQGKWRLLYSSAFSSRSLGGSRPGLPTGRLIPVTLGQVFQRIDVFSKDFDNIAEVELGAPWPFPPLEATATLAHKFELLGTCKIKITFEKTTVKTSGNLSQIPPFDIPRLPDSFRPSSNPGTGDFEVTYVDDTMRITRGDRGELRVFVIA

Columns and labels:
Experiment in all cases: split reporter; BiFC: fusions to the N-terminal half of YFP and the C-terminal moiety of CFP, transiently co-expressed in N. benthamiana leaves; confocal microscopy of mesophyll cells
[1] = biological target: T1, FBN2 fused to a half of a fluorescent protein (BiFC) (Arabidopsis thaliana)
[2] = biological target: T2, FBN1b fused to a half of a fluorescent protein (BiFC) (Arabidopsis thaliana)
[3] = biological target: T3, FBN1a fused to a half of a fluorescent protein (BiFC) (Arabidopsis thaliana)

Binder	binding [1]	binding [2]	binding [3]
B1	binds	–	–
B2	binds	–	–
B3	binds	–	–
B4	binds	binds	binds
B5	no binding	–	no binding
